Sequences with one replicate were seen in a single cluster, so their values are uncertain.
Test system: ATP
Assay: switch fluorescence ratio, 500 uM ATP over buffer (Cy3 cluster intensity, sum of 5 cycles each) (fold (ratio)); higher = stronger signal-on switching upon ATP binding; sequences stand for … in TCGTCGGCAGCGTCAGATGTGTATAAGAGACAGTTTTTTTTTTTTTTTTTTTTTTTTT…TC
Settings: aptamer strand: ATP DNA aptamer (quencher-CACCTGGGGGAGTATTGCGGAGGAAGG + anchor), 100 nM annealed; ATP concentration: 500 uM; one replicate
Method in brief: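 Values give the fluorescence ratio for each switch-domain sequence, averaged from per-cluster ratios of summed target-cycle to summed buffer-cycle Cy3 intensity. The Cy3-labelled switching-strand clusters sat on a modified Illumina MiSeq flow-cell, were annealed to 100 nM quencher-labelled ATP aptamer, and were imaged in selection buffer, then after 15 min with 500 uM ATP at 22 °C. Five cycles ran with NaOH stripping and re-annealing between them, and clusters outside 100-1000 RFU were excluded.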
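Note: ATP exposure 15 min at 22 °C before imaging.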

| Sequence | switch fluorescence ratio |
| --- | --- |
| GAGATAGACC | 1.01 |
| TCCAGGGTCT | 1.08 |
| GGTGATTCGG | 0.954 |
| TCAAATTGG | 1.02 |
| CTGACAACT | 1.05 |
| TCCAGACGGA | 0.973 |
| TAGGCTGATC | 0.994 |
| ATGTGGCGG | 0.977 |
| GGCCATCCAA | 0.976 |
| TGCATCACTA | 1 |
| CGTTGAAACG | 0.977 |
| GCCGATCCTA | 0.999 |
| ATCCGGGAAT | 1.01 |
| TGGCTCAAAG | 1.01 |
| CGACCTATTT | 0.975 |
| TCCAGTTAAT | 0.997 |
| CTCACGTAGT | 1.05 |
| ATGGGCCTTG | 0.987 |
| GTGCAAGCCT | 1.08 |
| TGATGCTAAA | 0.984 |
| GGGCTAGAAC | 1.02 |
| ACTATGCTAG | 0.954 |
| ATGTGGTAAA | 1.02 |

| Sequence | switch fluorescence ratio |
| --- | --- |
| ACATTGTGGT | 0.979 |
| TAGACTAGGA | 0.971 |
| GGGATAAACA | 1.02 |
| TTATGTCCTT | 1.01 |
| GTCGAGAGCC | 0.995 |
| TTGATCTTAC | 1.04 |
| GCACTGTCAG | 0.999 |
| TTGGTCAGGG | 0.979 |
| ATCTAAAATC | 0.96 |
| ACGGGCTCTT | 1.04 |
| CATTCTATA | 1 |
| TGAGCGATGG | 1.17 |
| CTGCTTACTG | 1.15 |
| CGTCTTGTGA | 0.973 |
| GCATCTCCAT | 1.09 |
| CGGTTAGCTG | 0.946 |
| TTGCAGTCAT | 0.984 |
| GTGCAGGCGT | 0.992 |
| GGTATTGTTC | 1 |
| AGGTTGAGCA | 0.972 |
| CTTGTATTGC | 1.05 |
| CAAAGTAACA | 1.02 |
| GCTGGTACGT | 0.956 |

| Sequence | switch fluorescence ratio |
| --- | --- |
| TAACGGACTT | 1.3 |
| ACAATATTTG | 0.981 |
| TACTACGTTA | 1.24 |
| CTTGGTTCCG | 1.25 |
| AATAAGCCAT | 0.999 |
| GGATGGTTG | 0.952 |
| TATGGGGTAA | 0.977 |
| AGGATTTTGA | 0.998 |
| TCGGGAGGGC | 0.97 |
| TTTGAGGCAC | 1.02 |
| CTAACGTGG | 0.972 |
| CAAGGGCACA | 1.09 |
| TCGGCTTTAA | 1.04 |
| GCAATCATGG | 1.07 |
| ACTTAACTTT | 1.08 |
| GTCTTAGAGG | 1.02 |
| CTCAGGAATT | 1.09 |
| AGGAGGGTG | 0.953 |
| CGGGTTTCCA | 1 |
| GTAGGAGATC | 1.04 |
| TACAGAATC | 1.02 |
| TTGGAATCTA | 1.02 |
| GCGAGCACAG | 1.11 |

| Sequence | switch fluorescence ratio |
| --- | --- |
| ATCAAAGAAT | 1.04 |
| GAAACGTCTG | 1.05 |
| GTTATGAAGG | 1.02 |
| GTAATCCGG | 1.01 |
| TGCCACATCG | 1.02 |
| TTCTCCCGGA | 1.13 |
| CGCGCAGATA | 1.07 |
| TGCCATGCCC | 0.991 |
| GATCGTGACC | 1.06 |
| CGAGACGCC | 1.1 |
| GGTCGCGCTC | 1.01 |
| GAGGGGAAG | 0.953 |
| GCTAGGAGGA | 0.972 |
| CGCCGTATGT | 1.05 |
| AGGTCGACCT | 0.95 |
| ACAAGGACAT | 1.08 |
| CCTCAACGTG | 1.15 |
| AGCGGAAAGA | 1.02 |
| GTCGGATTAC | 1.22 |
| ATAGATTCGA | 0.997 |
| GTTCCTGAGT | 1.03 |
| GTGCTTACTC | 1.3 |
| TGTTCTTTCG | 1 |

| Sequence | switch fluorescence ratio |
| --- | --- |
| CGCAATGTAG | 1.79 |
| AGCAAATATG | 1.04 |
| GGTTTGATAG | 0.963 |
| CCTGATGAGG | 1.03 |
| CATTTCCTTC | 1.08 |
| TCATGGCAA | 0.982 |
| GGGTATCTTA | 1.02 |
| CGAAGTTTTC | 1.16 |
| TCGATGACCT | 1.1 |
| TGATCAATTC | 1.03 |
| ACTATTTCAT | 1.07 |
| CGTATACGC | 1.12 |
| CTGATTTGG | 0.967 |
| GTTGTACGCG | 1.02 |
| CGGTAGATTA | 1.02 |
| GCCAGATGG | 1.02 |
| TCGAGAAAT | 0.986 |
| GATAATTAAT | 1.18 |
| TTGGAGATT | 0.992 |
| AAGTGGCCCG | 1.07 |
| AGTTGAATA | 1.03 |
| TAAACTATTC | 0.993 |
| AGTGCATAAG | 0.996 |

| Sequence | switch fluorescence ratio |
| --- | --- |
| AATCTTAATG | 0.99 |
| CGTGATGTAC | 1.36 |
| TCTCTCGAGA | 0.992 |
| TCTTAAAAGC | 1.02 |
| CTCGCACCAT | 1.15 |
| AGCAACTGAT | 1.04 |
| ATAGGCACCG | 1.1 |
| TGGCCGTGCG | 1 |
| AGGTATGAGT | 0.993 |
| TCACGAGC | 1.05 |
| TTTGTGCCGC | 1.03 |
| TGATCGAGGG | 1.01 |
| AATACTTTAG | 1 |
| ACCGGTGGGA | 1.01 |
| TTTAAGAGAC | 1.08 |
| TTGGACCCGA | 0.994 |
| ACCCCCTTGA | 1.21 |
| AATGGGGGTC | 0.955 |
| CGTTCGCGA | 2.78 |
| GGCCTTGGTC | 0.955 |
| GTTTTAGATT | 1 |
| AGAATATAAA | 1.01 |
| AGTGGATGTA | 1.01 |

| Sequence | switch fluorescence ratio |
| --- | --- |
| GAATCGAGCG | 0.975 |
| TCGTTCATCG | 0.932 |
| ATGGTATGTG | 1.01 |
| GCTCGCAGGG | 1.02 |
| ACGGCTTAAC | 1.08 |
| AACAAAGGAA | 0.994 |
| TTCGCAAAAA | 1.21 |
| TTGAACCTTG | 1.06 |
| GCAGAGCTGG | 1.01 |
| CAGGTCACTC | 1.01 |
| AATTCTGTTA | 1 |
| GTGCTACCGT | 0.986 |
| CACGTAAAGG | 1.23 |
| ACCTTCCGCG | 3.01 |
| AATAGTGCAT | 0.998 |
| GCCCCTGACT | 1.12 |
| CATCGGGGCC | 1.04 |
| GGAGGGTCTC | 1.01 |
| ACCAGGAGGT | 1.05 |

Reference: the supplement of paper PMC10126150
